# Source: the supplement of paper PMC8728848
# Some of the results follow.
# B1: CLEC5A (Homo sapiens), Q9NY25 (protein)
# chain: MNWHMIISGLIVVVLKVVGMTLFLLYFPQIFNKSNDGFTTTRSYGTVSQIFGSSSPSPNGFITTRSYGTVCPKDWEFYQARCFFLSTSESSWNESRDFCKGKGSTLAIVNTPEKLKFLQDITDAEKYFIGLIYHREEKRWRWINNSVFNGNVTNQNQNFNCATIGLTKTFDAASCDISYRRICEKNAK
# What was measured:
# Test in all cases: glycan array binding signal (z-score within array); higher = stronger binding
# Settings in all cases: glycan notation: IUPAC condensed, linker removed
# [1] = target: Neu5Ac(a2-6)Gal(b1-4)GlcNAc(b1-2)[Neu5Ac(a2-6)Gal(b1-4)GlcNAc(b1-4)]Man(a1-3)[GlcNAc(b1-4)][Neu5Ac(a2-6)Gal(b1-4)GlcNAc(b1-2)[Neu5Ac(a2-6)Gal(b1-4)GlcNAc(b1-6)]Man(a1-6)]Man(b1-4)GlcNAc(b1-4)GlcNAc
# Outline: (§1)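 Negative Z-scores can be read as non-binding. The Z-score is calculated within each array and then averaged across arrays of one protein sequence at different concentrations or buffers and across linkers. Arrays, 3228 in all, were curated from the Consortium for Functional Glycomics database and kept only where the protein sequence was available.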
# [2] = target: Neu5Ac(a2-6)Gal(b1-4)GlcNAc(b1-2)[Neu5Ac(a2-6)Gal(b1-4)GlcNAc(b1-4)]Man(a1-3)[GlcNAc(b1-4)][Neu5Ac(a2-6)Gal(b1-4)GlcNAc(b1-4)Man(a1-6)]Man(b1-4)GlcNAc(b1-4)GlcNAc
# Outline: as §1
# [3] = target: Neu5Ac(a2-6)Gal(b1-4)GlcNAc(b1-2)[Neu5Ac(a2-6)Gal(b1-4)GlcNAc(b1-6)]Man(a1-6)[Neu5Ac(a2-6)Gal(b1-4)GlcNAc(b1-2)Man(a1-3)][GlcNAc(b1-4)]Man(b1-4)GlcNAc(b1-4)GlcNAc
# Outline: as §1
# [4] = target: Neu5Ac(a2-6)Gal(b1-4)GlcNAc(b1-3)Gal(b1-3)GlcNAc
# Outline: as §1
# [5] = target: Neu5Ac(a2-6)Gal(b1-4)GlcNAc(b1-3)Gal(b1-4)Glc
# Outline: as §1
# [6] = target: Neu5Ac(a2-6)Gal(b1-4)GlcNAc(b1-3)Gal(b1-4)GlcNAc
# Outline: as §1
# [7] = target: Neu5Ac(a2-6)Gal(b1-4)GlcNAc(b1-3)Gal(b1-4)GlcNAc(b1-2)Man(a1-3)[Neu5Ac(a2-6)Gal(b1-4)GlcNAc(b1-3)Gal(b1-4)GlcNAc(b1-2)Man(a1-6)]GalNAc
# Outline: as §1
# [8] = target: Neu5Ac(a2-6)Gal(b1-4)GlcNAc(b1-3)Gal(b1-4)GlcNAc(b1-3)Gal(b1-4)GlcNAc
# Outline: as §1
# [9] = target: Neu5Ac(a2-6)Gal(b1-4)GlcNAc(b1-3)Gal(b1-4)GlcNAc(b1-3)Gal(b1-4)GlcNAc(b1-2)Man(a1-3)[Neu5Ac(a2-6)Gal(b1-4)GlcNAc(b1-3)Gal(b1-4)GlcNAc(b1-3)Gal(b1-4)GlcNAc(b1-2)Man(a1-6)]GalNAc
# Outline: as §1
# [10] = target: Neu5Ac(a2-6)Gal(b1-4)GlcNAc(b1-3)Gal(b1-4)GlcNAc(b1-3)GalNAc
# Outline: as §1
# [11] = target: Neu5Ac(a2-6)Gal(b1-4)GlcNAc(b1-3)Gal(b1-4)GlcNAc(b1-3)[Neu5Ac(a2-6)Gal(b1-4)GlcNAc(b1-3)Gal(b1-4)GlcNAc(b1-6)]GalNAc
# Outline: as §1
# [12] = target: Neu5Ac(a2-6)Gal(b1-4)GlcNAc(b1-3)Gal(b1-4)GlcNAc(b1-6)[Gal(b1-3)]GalNAc
# Outline: as §1
# [13] = target: Neu5Ac(a2-6)Gal(b1-4)GlcNAc(b1-3)Gal(b1-4)[Fuc(a1-3)]Glc
# Outline: as §1
# [14] = target: Neu5Ac(a2-6)Gal(b1-4)GlcNAc(b1-3)Gal(b1-4)[Fuc(a1-3)]GlcNAc(b1-3)Gal(b1-4)[Fuc(a1-3)]GlcNAc
# Outline: as §1
# [15] = target: Neu5Ac(a2-6)Gal(b1-4)GlcNAc(b1-3)GalNAc
# Outline: as §1
# [16] = target: Neu5Ac(a2-6)Gal(b1-4)GlcNAc(b1-3)[Neu5Ac(a2-6)Gal(b1-4)GlcNAc(b1-6)]Gal(b1-4)Glc
# Outline: as §1
# [17] = target: Neu5Ac(a2-6)Gal(b1-4)GlcNAc(b1-3)[Neu5Ac(a2-6)Gal(b1-4)GlcNAc(b1-6)]GalNAc
# Outline: as §1
# [18] = target: Neu5Ac(a2-6)Gal(b1-4)GlcNAc(b1-6)GalNAc
# Outline: as §1
# [19] = target: Neu5Ac(a2-6)Gal(b1-4)GlcNAc(b1-6)[Gal(b1-3)GlcNAc(b1-3)]Gal(b1-4)Glc
# Outline: as §1
# [20] = target: Neu5Ac(a2-6)Gal(b1-4)GlcNAc(b1-6)[Gal(b1-3)]GalNAc
# Outline: as §1
# [21] = target: Neu5Ac(a2-6)Gal(b1-4)GlcNAc6S
# Outline: as §1
# [22] = target: Neu5Ac(a2-6)Gal(b1-4)[Fuc(a1-3)]GlcNAc(b1-3)Gal(b1-4)Glc
# Outline: as §1
# [23] = target: Neu5Ac(a2-6)Gal(b1-6)GalNAc(b1-4)Gal(b1-4)Glc
# Outline: as §1
# [24] = target: Neu5Ac(a2-6)Gal6S
# Outline: as §1
# [25] = target: Neu5Ac(a2-6)Gal6S(b1-4)Glc
# Outline: as §1
# [26] = target: Neu5Ac(a2-6)Gal6S(b1-4)Glc4S
# Outline: as §1
# [27] = target: Neu5Ac(a2-6)GalNAc
# Outline: as §1
# [28] = target: Neu5Ac(a2-6)GalNAc(b1-4)GlcNAc
# Outline: as §1
# [29] = target: Neu5Ac(a2-6)GalNAc(b1-4)GlcNAc6S
# Outline: as §1
# [30] = target: Neu5Ac(a2-6)Glc
# Outline: as §1
# [31] = target: Neu5Ac(a2-6)Glc6S
# Outline: as §1
binder,measurement,setting,value
B1,glycan array binding signal (z-score),[1],0.123
same,glycan array binding signal (z-score),[2],-0.023
same,glycan array binding signal (z-score),[3],-0.184
same,glycan array binding signal (z-score),[4],0.253
same,glycan array binding signal (z-score),[5],-0.32
same,glycan array binding signal (z-score),[6],-0.159
same,glycan array binding signal (z-score),[7],0.366
same,glycan array binding signal (z-score),[8],-0.19
same,glycan array binding signal (z-score),[9],0.213
same,glycan array binding signal (z-score),[10],-0.189
same,glycan array binding signal (z-score),[11],-0.099
same,glycan array binding signal (z-score),[12],-0.156
same,glycan array binding signal (z-score),[13],0.162
same,glycan array binding signal (z-score),[14],-0.16
same,glycan array binding signal (z-score),[15],-0.058
same,glycan array binding signal (z-score),[16],0.644
same,glycan array binding signal (z-score),[17],-0.105
same,glycan array binding signal (z-score),[18],-0.056
same,glycan array binding signal (z-score),[19],-0.224
same,glycan array binding signal (z-score),[20],0.23
same,glycan array binding signal (z-score),[21],-0.08
same,glycan array binding signal (z-score),[22],-0.32
same,glycan array binding signal (z-score),[23],-0.32
same,glycan array binding signal (z-score),[24],-0.32
same,glycan array binding signal (z-score),[25],-0.32
same,glycan array binding signal (z-score),[26],-0.127
same,glycan array binding signal (z-score),[27],-0.392
same,glycan array binding signal (z-score),[28],-0.195
same,glycan array binding signal (z-score),[29],-0.137
same,glycan array binding signal (z-score),[30],-0.32
same,glycan array binding signal (z-score),[31],-0.32
